Tests used:
[1] = target: T1, Human PD-L1-ECD-His (human, UniProt Q9NZQ7 fragment); experiment: Octet Red96 BLI, pH7.4; fold of affinity against PD1-Fc-wt1
T1 construct: Bought (Sino cat. no. I-10084-H08H); not shown: His tag

[2] = target: T1, Human PD-L1-ECD-His; experiment: Octet Red96 BLI, pH6.0; fold of affinity against PD1-Fc-wt1
[3] = target: T1, Human PD-L1-ECD-His; experiment: Octet Red96 BLI, PDL1-ECD-His loaded on anti-Penta-HIS (HIS1K) biosensor, PD1-Fc protein as analyte, 1:1 model, pH6.0; pH 6
[4] = target: T1, Human PD-L1-ECD-His; experiment: Octet Red96 BLI, PDL1-ECD-His loaded on anti-Penta-HIS (HIS1K) biosensor, PD1-Fc protein as analyte, 1:1 model, pH7.4; pH 7.4
[5] = target: T1, Human PD-L1-ECD-His; experiment: Octet Red96 BLI, PDL1-ECD-His loaded on anti-Penta-HIS (HIS1K) biosensor, PD1-Fc protein as analyte, 1:1 model, pH6.0; column head kdis(1/s); pH 6
[6] = target: T1, Human PD-L1-ECD-His; experiment: Octet Red96 BLI, PDL1-ECD-His loaded on anti-Penta-HIS (HIS1K) biosensor, PD1-Fc protein as analyte, 1:1 model, pH7.4; column head kdis(1/s); pH 7.4
[7] = target: T2, PD-L1 on PD-L1 transfected CHO-S cells (human, UniProt Q9NZQ7); experiment: flow cytometry on PDL1 transfected CHO-S cells, goat anti-human Fc PE detection, pH6.0
T2 construct: also called PD-L1 tf CHO-S cells

T1 sequence (Q9NZQ7 19-238): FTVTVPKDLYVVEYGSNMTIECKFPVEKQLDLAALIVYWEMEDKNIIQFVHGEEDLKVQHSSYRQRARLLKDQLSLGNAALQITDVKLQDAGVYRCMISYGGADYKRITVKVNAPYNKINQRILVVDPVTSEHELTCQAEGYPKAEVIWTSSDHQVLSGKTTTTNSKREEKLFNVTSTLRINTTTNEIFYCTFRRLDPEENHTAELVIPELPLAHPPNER

| Binder | Fold [1] | Fold [2] | Kd [3] [nM] | kon [3] [M⁻¹ s⁻¹] | Kd [4] [nM] | kon [4] [M⁻¹ s⁻¹] | koff [5] [s⁻¹] | koff [6] [s⁻¹] | EC50 (read off the curve) [7] [µg/mL] |
| --- | --- | --- | --- | --- | --- | --- | --- | --- | --- |
| PD1-Fc-mt9 (Fc fusion) SHHGHGHGGGGPTFSPALLVVTEGDNATFTCSFSNTSESFVLNWYRMSPSNQTDKLAAFPEDRSQPGQDCRFRVTQLPNGRDFHMSVVRARRNDSGTYLCGAISLAPKAQIKESLRAELRVTERRAEVPTAHPSPSPRPAGQFQTLV[human IgG4 Fc with S228P (EU numbers) not shown] | 1.69 | 2.56 | 6.98 | 706000 | 5.92 | 846000 | 0.00493 | 0.00501 |  |
| PD1-Fc-mt11 (Fc fusion) SHGHGHHGGGGPTFSPALLVVTEGDNATFTCSFSNTSESFVLNWYRMSPSNQTDKLAAFPEDRSQPGQDCRFRVTQLPNGRDFHMSVVRARRNDSGTYLCGAISLAPKAQIKESLRAELRVTERRAEVPTAHPSPSPRPAGQFQTLV[human IgG4 Fc with S228P (EU numbers) not shown] | 1.97 | 2.41 | 7.42 | 808000 | 5.08 | 1.06e+06 | 0.006 | 0.0054 |  |
| PD1-Fc-mt12 (Fc fusion) SHHGHGHGGGGPTFSPALLVVTEGDNATFTCSFSNTSESFVLNWYRMSPHNQTDKLAAFPEDRSQPGQDCRFRVTQLPNGRDFHMSVVRARRNDSGTYLCGAISLAPKAQIKESLRAELRVTERRAEVPTAHPSPSPRPAGQFQTLV[human IgG4 Fc with S228P (EU numbers) not shown] | 1.45 | 2.41 | 7.42 | 943000 | 6.89 | 1.02e+06 | 0.00699 | 0.00703 |  |
| PD1-Fc-mt13 (Fc fusion) SHGHHGHGGGGPTFSPALLVVTEGDNATFTCSFSNTSESFVLNWYRMSPHNQTDKLAAFPEDRSQPGQDCRFRVTQLPNGRDFHMSVVRARRNDSGTYLCGAISLAPKAQIKESLRAELRVTERRAEVPTAHPSPSPRPAGQFQTLV[human IgG4 Fc with S228P (EU numbers) not shown] | 1.8 | 2.93 | 6.1 | 1.1e+06 | 5.55 | 1.18e+06 | 0.00674 | 0.00658 |  |
| PD1-Fc-mt14 (Fc fusion) SHGHGHHGGGGPTFSPALLVVTEGDNATFTCSFSNTSESFVLNWYRMSPHNQTDKLAAFPEDRSQPGQDCRFRVTQLPNGRDFHMSVVRARRNDSGTYLCGAISLAPKAQIKESLRAELRVTERRAEVPTAHPSPSPRPAGQFQTLV[human IgG4 Fc with S228P (EU numbers) not shown] | 1.34 | 2.09 | 8.56 | 881000 | 7.44 | 902000 | 0.00754 | 0.00671 |  |
| PD1-Fc-mt6 (Fc fusion) SHGHGGGPTFSPALLVVTEGDNATFTCSFSNTSESFVLNWYRMSPHNQTDKLAAFPEDRSQPGQDCRFRVTQLPNGRDFHMSVVRARRNDSGTYLCGAISLAPKAQIKESLRAELRVTERRAEVPTAHPSPSPRPAGQFQTLV[human IgG4 Fc with S228P (EU numbers) not shown] | 1.64 | 2.66 | 6.74 | 806000 | 6.1 | 1.03e+06 | 0.00544 | 0.0063 | ~2 |

From patent US20250115658A1 (FBD BIOLOGICS, published 2025)
